# Data published in PubChem BioAssay (Tox21).
# The inconclusive results got no clear call from the source; some entries with a clear call stand among them for comparison. For some assays here: Potencies beside an inconclusive call are fits to weak or partial responses and may not hold up. Active and inactive are the calls of the source. Unless noted, calls come from the whole dose curve; as a rule, active = well fitted curve in the direction sought with a large enough effect in the repeat runs; inconclusive = weak or mixed curves; inactive = no such curve, though single readings can be large; an effect the other way counts as inactive or inconclusive.
# Experiments:
# [1] = qHTS RealTime-Glo MT Cell Viability Assay in HEK293 cells - 16 hour (AID 1224872); note: nearly all actives have a fitted effect of over 50% in size; note: potency is the fitted concentration of half-maximal effect; for activity change, negative = cytotoxicity: top concentration of the series differs between compounds; % is set by controls: 0 for no effect and ±100 for the full control effect
# Outline: (§1)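 Nonlytic real-time viability readout: viable cells convert prosubstrate to NanoLuc substrate, giving luminescence proportional to live cell number. HEK293, 600 cells/well, compound added after 5 h, continuous culture at 37 C.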
# [2] = Caspase-3/7 induction in CHO-K1 cells by small molecules, qHTS cell viability counter screen (AID 1346979); note: nearly all actives have a fitted effect of over 35% in size; note: potency is the fitted concentration of half-maximal effect; for activity change, negative = cytotoxicity: % is set by controls: 0 for no effect and ±100 for the full control effect
# Outline: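 Wild-type CHO-K1 cells were seeded at 1,500 per well, rested 5hr at 37 C, then exposed to compounds in DMSO. After 16hr, CellTiter-Fluor reagent was added and fluorescence read 1hr later as the viability measure.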
# [3] = qHTS assay for small molecule agonists of the p53 signaling pathway (AID 651631; calls by dose curve; note: nearly all actives have a fitted effect of over 15% in size; note: potency is the fitted concentration of half-maximal effect; for activation: % is set by controls: 0 for no effect and ±100 for the full control effect); details: HCT-116 p53RE-bla reporter, beta-lactamase FRET ratio, 16 h; activation: at 73.3 µM (top of the series) unless noted
# Outline: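 HCT-116 cells carrying a stable p53 response element–beta-lactamase reporter were plated, rested 5 h at 37 °C, then exposed to compound in DMSO for 16 h at 37 °C; reporter activity was read as FRET substrate fluorescence after 2 h at room temperature.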
# [4] = target: Estrogen receptor (Homo sapiens) (UniProt P03372); assay: qHTS assay to identify small molecule agonists of the estrogen receptor alpha (ER-alpha) signaling pathway using the BG1 cell line (AID 743079); details: BG1Luc4E2 cells, ERE-luciferase agonist, 22 h; activation: at 70.3 µM (top of the series) unless noted; note: nearly all actives have a fitted effect of over 20% in size; note: potency is the fitted concentration of half-maximal effect; for activation: % is set by controls: 0 for no effect and ±100 for the full control effect
# [5] = target: Peroxisome proliferator-activated receptor delta (Homo sapiens) (UniProt Q03181); assay: qHTS assay to identify small molecule antagonists of the peroxisome proliferator-activated receptor delta (PPARd) signaling pathway (AID 743215; active = well fitted inhibition curve with a large enough effect in the signal ratio in the repeat runs, not every such curve was filed as active; inconclusive = weak or mixed curves, or effect the other way; inactive = no such curve, though single readings can be large or run the other way; the % refers to the signal ratio;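 note: cells stimulated with agonist L165041 at 300 nM final during compound exposure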; note: potency is the fitted concentration of half-maximal effect); details: HEK293H PPARd-UAS-bla, beta-lactamase FRET ratio, antagonist, 17 h; ratio activity, negative = inhibition: at 62 µM (top of the series) unless noted
# Outline: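 Read-out is beta-lactamase FRET fluorescence, measured 2 h after substrate addition at room temperature. Beforehand, UAS-bla HEK293H cells carrying the PPARd reporter were exposed to compounds with L165041 at 300 nM final for 17 h at 37 C.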
# [6] = qHTS RealTime-Glo MT Cell Viability Assay in HEK293 cells - 32 hour (AID 1224868); note: potency is the fitted concentration of half-maximal effect; nearly all actives have a fitted effect of over 50% in size
# Outline: as §1
# [7] = qHTS RealTime-Glo MT Cell Viability Assay in HEK293 cells - 24 hour (AID 1224886); note: potency is the fitted concentration of half-maximal effect; nearly all actives have a fitted effect of over 50% in size
# Outline: as §1
# [8] = qHTS assay to identify small molecule antagonists of the estrogen receptor alpha (ER-alpha) signaling pathway - cell viability counter screen (AID 743074; calls by dose curve;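 note: HEK293 cells carrying ER-alpha-UAS-bla reporter stimulated with 17beta-estradiol; % is set by controls: 0 for no effect and ±100 for the full control effect; nearly all actives have a fitted effect of over 45% in size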)
# [9] = qHTS assay to identify small molecule antagonists of the estrogen related receptor (ERR) signaling pathway from Tox21 library - cell viability counter screen (AID 1224834); note: potency is the fitted concentration of half-maximal effect; nearly all actives have a fitted effect of over 30% in size
# Outline: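 Fluorescence from CellTiter-Fluor gives the viability read-out, taken 30 min after reagent addition. Before that, ERR cells seeded 6 h earlier were incubated with compounds for 17.5 h at 37 C.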
# [10] = target: Thyrotropin receptor (Homo sapiens) (UniProt P16473); assay: qHTS assay to identify small molecule agonists of the thyroid stimulating hormone receptor (TSHR) signaling pathway (AID 1224843; calls by dose curve; note: nearly all actives have a fitted effect of over 45% in size; note: potency is the fitted concentration of half-maximal effect); details: TSHR-HEK293 cells, cAMP HTRF, agonist mode, 30 min; activation: at 92.4 µM (top of the series) unless noted
# Outline: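 TSHR-expressing HEK293 cells (800 per well) were exposed to compounds for 30 min at room temperature. cAMP was then detected by HTRF competition with cAMP-d2 and anti-cAMP cryptate, read after 1 h at room temperature. Fifteen concentrations, triplicate.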
# [11] = target: Estrogen receptor beta (Homo sapiens) (UniProt Q92731); assay: qHTS assay to identify small molecule agonists of the estrogen receptor beta (ER-beta) signaling pathway (AID 1259377; active = well fitted activation curve with a large enough effect in the signal ratio in the repeat runs, not every such curve was filed as active; inconclusive = weak or mixed curves, or effect the other way; the % refers to the signal ratio; note: potency is the fitted concentration of half-maximal effect); details: ER-beta-UAS-bla HEK293T, beta-lactamase FRET ratio, 16 h; activation: at 92.4 µM (top of the series) unless noted
# Outline: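 ER-beta-UAS-bla HEK293T (GripTite) cells carrying a UAS-driven beta-lactamase reporter, in medium with 2% charcoal-stripped FBS, were exposed to compounds for 16 hr at 37C; LiveBLAzer B/G FRET substrate was then added and fluorescence read after 2 hours at room temperature.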
# [12] = qHTS assay for identifying genotoxic compounds that show differential cytotoxicity against isogenic chicken DT40 cell lines with known DNA damage response pathways - wild type cell line (AID 743012); details: DT40 wild type chicken cells viability, CellTiter-Glo, 40 h; activity change, negative = cytotoxicity: at 68.4 µM (top of the series) unless noted; note: nearly all actives have a fitted effect of over 60% in size; note: potency is the fitted concentration of half-maximal effect
# Outline: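 Wild type DT40, 300 cells/well, ~0.5 h settle at 37 C/5% CO2; compounds in DMSO added by pintool; 40 h at 37 C/5% CO2; CellTiter-Glo, 30 min RT; luminescence.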
# [13] = qHTS assay to identify small molecule antagonists of the peroxisome proliferator-activated receptor delta (PPARd) signaling pathway - cell viability counter screen (AID 743213); details: PPARd-bla HEK293H viability, CellTiter-Glo luminescence, 17 h; viability change, negative = cytotoxic: at 62 µM (top of the series) unless noted; note: nearly all actives have a fitted effect of over 50% in size; note: potency is the fitted concentration of half-maximal effect
# Outline: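 HEK293H PPARd UAS-bla cells, 5 h pre-incubation, compound + L165041 300 nM final, 17 h 37 C; B/G FRET substrate 2 h RT; then CellTiter-Glo 30 min RT, luminescence.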
# [14] = qHTS assay to identify small molecule agonists of the vitamin D receptor (VDR) signaling pathway - cell viability counter screen (AID 743224)
# Outline: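 Luminescence from CellTiter-Glo, read after 30 min at room temperature, reports viability of VDR-bla cells treated with compounds for 16 h at 37C in the wells used for the beta-lactamase FRET read.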
# [15] = qHTS assay to identify small molecule antagonists of the vitamin D receptor (VDR) signaling pathway - cell viability counter screen (AID 743225); details: VDR-bla HEK293T viability, CellTiter-Glo luminescence, 16 h; viability change, negative = cytotoxic: at 61 µM (top of the series) unless noted
# Outline: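 VDR-bla HEK 293T cells, 4 h pre-incubation at 37C, then compound plus 1-alpha,25-dihydroxyvitamin D3 (3 nM final) for 16 h. After the beta-lactamase FRET read, CellTiter-Glo was added to the same wells; luminescence after 30 min at room temperature.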
# [16] = target: Nuclear receptor subfamily 1 group I member 2 (Homo sapiens) (UniProt O75469); assay: Human pregnane X receptor (PXR) small molecule agonists, qHTS assay (AID 1346982); note: potency is the fitted concentration of half-maximal effect; nearly all actives have a fitted effect of over 35% in size
# Outline: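 Luciferase signal from ONE-Glo (30 min, room temperature) measured activation of hPXR-driven CYP3A4 reporter expression in PXR-Luc HepG2 cells treated with compounds for 24 hr at 37 C.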
# [17] = target: Cytochrome P450 2C19 (Homo sapiens) (UniProt P33261); assay: Cytochrome P450 Family 2 Subfamily C Member 19 (CYP2C19) small molecule antagonists: luciferase reporter qHTS assay (AID 1671197); note: potency is the fitted concentration of half-maximal effect; nearly all actives have a fitted effect of over 65% in size
# Outline: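 CYP2C19 P450-Glo, 1536-well qHTS. Cpd + enzyme/proluciferin substrate 10 min RT; + NADPH regen, 37C 1 h; stop with luciferin detection reagent, 20 min RT, luminescence (RLU). Pos ctrl ketoconazole.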
# [18] = qHTS assay to identify small molecule agonists of H2AX - cell viability counter screen (AID 1224847; calls by dose curve; note: nearly all actives have a fitted effect of over 30% in size; note: potency is the fitted concentration of half-maximal effect)
# Outline: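 Wild-type CHO-K1 cells (10% FBS medium) were plated overnight at 37C, exposed to compounds at 15 concentrations for 3 hr at 37C (0.76% DMSO final), and viability was read as CellTiter-Glo luminescence after 30 min at room temperature.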
# [19] = qHTS assay to identify small molecule agonists of the retinoic acid receptor (RAR) signaling pathway (AID 1159553); details: C3RL4 RARE luciferase reporter, agonist, 6 h; activation: at 73.3 µM (top of the series) unless noted; note: potency is the fitted concentration of half-maximal effect
# Outline: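 Luminescence from a RARE-driven luciferase reporter in C3RL4 cells served as the read-out, measured after 30 min with detection reagent at room temperature. Compounds in DMSO were applied for 6 hr at 37 C following overnight seeding.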
# Tags give direction and shape of the fitted curve or compound fluorescence and quenching.
# Chain of UniProt Q03181 (Q03181 whole entry, looked up): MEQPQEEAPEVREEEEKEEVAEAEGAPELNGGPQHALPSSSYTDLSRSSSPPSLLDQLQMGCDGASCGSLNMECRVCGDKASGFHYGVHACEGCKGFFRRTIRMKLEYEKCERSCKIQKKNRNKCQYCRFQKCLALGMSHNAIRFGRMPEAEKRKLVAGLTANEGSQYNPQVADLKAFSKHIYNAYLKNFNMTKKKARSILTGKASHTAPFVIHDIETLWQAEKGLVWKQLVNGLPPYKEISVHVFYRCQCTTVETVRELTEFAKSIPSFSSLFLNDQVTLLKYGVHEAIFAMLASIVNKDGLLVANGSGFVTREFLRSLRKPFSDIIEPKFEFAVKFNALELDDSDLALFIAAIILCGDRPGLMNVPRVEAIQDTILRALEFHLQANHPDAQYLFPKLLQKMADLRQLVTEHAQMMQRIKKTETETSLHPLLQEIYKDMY
# Chain of UniProt P16473 (P16473 whole entry, looked up): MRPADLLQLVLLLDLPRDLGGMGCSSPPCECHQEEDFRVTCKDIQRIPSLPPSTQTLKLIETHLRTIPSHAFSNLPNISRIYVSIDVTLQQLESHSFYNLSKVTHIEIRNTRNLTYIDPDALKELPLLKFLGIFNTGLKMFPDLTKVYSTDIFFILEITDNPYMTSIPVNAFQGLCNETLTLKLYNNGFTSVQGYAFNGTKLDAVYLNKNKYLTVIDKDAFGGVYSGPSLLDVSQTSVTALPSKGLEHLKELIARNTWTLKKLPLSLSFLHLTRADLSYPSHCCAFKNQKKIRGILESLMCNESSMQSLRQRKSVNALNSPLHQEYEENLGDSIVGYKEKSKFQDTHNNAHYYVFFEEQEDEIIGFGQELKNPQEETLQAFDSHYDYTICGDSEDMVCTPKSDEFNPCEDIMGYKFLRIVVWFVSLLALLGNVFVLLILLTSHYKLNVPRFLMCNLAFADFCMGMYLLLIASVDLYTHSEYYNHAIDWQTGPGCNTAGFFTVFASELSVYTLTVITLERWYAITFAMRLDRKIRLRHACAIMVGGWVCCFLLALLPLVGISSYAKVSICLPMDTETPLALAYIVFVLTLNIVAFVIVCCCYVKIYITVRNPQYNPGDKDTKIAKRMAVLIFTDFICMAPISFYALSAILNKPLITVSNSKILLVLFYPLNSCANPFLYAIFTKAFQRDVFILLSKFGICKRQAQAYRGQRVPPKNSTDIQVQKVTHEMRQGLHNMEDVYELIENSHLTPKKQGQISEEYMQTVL
# Chain of UniProt P33261 (P33261 whole entry, looked up): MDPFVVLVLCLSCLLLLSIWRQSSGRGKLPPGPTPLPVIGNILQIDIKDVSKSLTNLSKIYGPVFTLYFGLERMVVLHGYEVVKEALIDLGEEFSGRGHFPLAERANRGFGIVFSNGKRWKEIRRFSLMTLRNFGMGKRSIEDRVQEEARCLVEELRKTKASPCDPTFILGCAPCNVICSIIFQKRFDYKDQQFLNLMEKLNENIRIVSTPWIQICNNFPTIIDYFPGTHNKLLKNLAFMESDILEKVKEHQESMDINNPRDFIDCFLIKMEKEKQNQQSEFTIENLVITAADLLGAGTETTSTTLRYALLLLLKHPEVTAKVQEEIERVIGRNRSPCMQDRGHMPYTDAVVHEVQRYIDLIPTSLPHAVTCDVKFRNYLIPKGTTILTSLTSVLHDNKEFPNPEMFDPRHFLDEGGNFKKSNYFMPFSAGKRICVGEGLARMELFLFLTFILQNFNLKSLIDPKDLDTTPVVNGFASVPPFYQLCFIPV
# Chain of UniProt Q92731 (Q92731 whole entry, looked up): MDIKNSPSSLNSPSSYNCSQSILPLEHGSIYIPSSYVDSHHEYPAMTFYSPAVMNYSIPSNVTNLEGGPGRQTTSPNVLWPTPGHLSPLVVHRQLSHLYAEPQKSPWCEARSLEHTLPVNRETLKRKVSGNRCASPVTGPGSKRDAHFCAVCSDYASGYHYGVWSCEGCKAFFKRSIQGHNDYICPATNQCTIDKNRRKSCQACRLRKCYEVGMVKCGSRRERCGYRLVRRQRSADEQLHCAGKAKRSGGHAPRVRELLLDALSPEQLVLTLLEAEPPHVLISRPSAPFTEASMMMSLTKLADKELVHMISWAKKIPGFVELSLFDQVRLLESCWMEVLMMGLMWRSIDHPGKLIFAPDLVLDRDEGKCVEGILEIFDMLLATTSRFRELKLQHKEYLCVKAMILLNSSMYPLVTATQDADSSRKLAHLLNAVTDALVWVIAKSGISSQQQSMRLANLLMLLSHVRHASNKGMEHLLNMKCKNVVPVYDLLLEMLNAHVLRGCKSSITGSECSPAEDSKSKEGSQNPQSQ
# Chain of UniProt P03372 (P03372 whole entry, looked up): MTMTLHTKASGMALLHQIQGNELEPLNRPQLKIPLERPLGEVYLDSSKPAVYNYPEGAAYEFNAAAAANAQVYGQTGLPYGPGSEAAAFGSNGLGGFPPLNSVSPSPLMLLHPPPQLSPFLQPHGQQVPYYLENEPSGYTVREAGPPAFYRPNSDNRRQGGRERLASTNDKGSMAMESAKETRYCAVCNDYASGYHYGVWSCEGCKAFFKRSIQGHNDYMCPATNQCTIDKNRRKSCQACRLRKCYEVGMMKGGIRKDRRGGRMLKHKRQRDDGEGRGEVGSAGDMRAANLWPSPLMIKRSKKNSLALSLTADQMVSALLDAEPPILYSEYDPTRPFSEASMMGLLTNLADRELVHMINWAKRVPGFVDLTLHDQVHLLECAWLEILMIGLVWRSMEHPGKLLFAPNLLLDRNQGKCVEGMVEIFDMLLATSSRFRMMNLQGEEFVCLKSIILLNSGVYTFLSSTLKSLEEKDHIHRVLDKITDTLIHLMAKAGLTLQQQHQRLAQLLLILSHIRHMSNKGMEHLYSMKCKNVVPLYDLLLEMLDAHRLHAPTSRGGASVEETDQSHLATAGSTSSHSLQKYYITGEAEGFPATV
# Chain of UniProt O75469 (O75469 whole entry, looked up): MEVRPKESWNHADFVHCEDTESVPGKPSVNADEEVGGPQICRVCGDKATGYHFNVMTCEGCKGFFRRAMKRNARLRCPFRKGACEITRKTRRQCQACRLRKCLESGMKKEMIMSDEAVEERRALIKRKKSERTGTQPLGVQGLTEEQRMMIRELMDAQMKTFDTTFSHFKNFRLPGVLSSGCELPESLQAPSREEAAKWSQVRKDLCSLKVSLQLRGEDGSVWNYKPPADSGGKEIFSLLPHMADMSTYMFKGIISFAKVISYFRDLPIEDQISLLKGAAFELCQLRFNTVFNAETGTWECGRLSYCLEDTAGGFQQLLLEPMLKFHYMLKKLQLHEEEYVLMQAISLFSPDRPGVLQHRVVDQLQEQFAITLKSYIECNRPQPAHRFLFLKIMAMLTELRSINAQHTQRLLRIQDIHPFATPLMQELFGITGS
structure (smiles),measurement,setting,value
O=C(O)CBr,Potency,[1],inactive
same,Potency,[2],inactive
Oc1ccc2c3c1O[C@H]1[C@@H](O)C=C[C@H]4[C@@H](C2)NCC[C@@]341,Potency,[3],inactive
same,Potency,[2],"inconclusive: 63 µM [cytotoxic, partial curve]"
CCC[CH2][Sn]([Cl])([Cl])[Cl],activation,[4],inconclusive: -8.24% [phenotype inactive] [at 95 µM]
same,"ratio activity, negative = inhibition",[5],inconclusive: -0.151% [at 80.4 µM]
same,Potency,[6],"inconclusive: 8.71 µM [rising, full curve]"
same,Potency,[7],"inconclusive: 21.9 µM [rising, partial curve]"
CC[C@]1(O)CC[C@H]2[C@@H]3CCC4=CCCC[C@@H]4[C@H]3CC[C@@]21C,Potency,[3],active: 3.76 µM
same,Potency,[8],inactive
same,Potency,[9],"inconclusive: 23.7 µM [cytotoxic, partial curve]"
same,Potency,[10],active: 15 µM
same,Potency,[6],"inconclusive: 23.9 µM [cytotoxic, partial curve, poor fit]"
same,Potency,[7],"inconclusive: 23.9 µM [cytotoxic, partial curve, poor fit]"
same,Potency,[11],active: 0.0067 µM
same,Potency,[2],inconclusive: 29.8 µM [cytotoxic]
CC(=O)NNc1ccccc1,Potency,[12],active: 1.52 µM
same,Potency,[13],"inconclusive: 1.09 µM [cytotoxic, full curve]"
same,Potency,[14],"inconclusive: 1.94 µM [cytotoxic, full curve]"
same,Potency,[15],"inconclusive: 4.34 µM [cytotoxic, full curve]"
same,Potency,[9],"inconclusive: 3.41 µM [cytotoxic, full curve]"
same,Potency,[11],inactive
same,Potency,[2],"inconclusive: 60.7 µM [cytotoxic, partial curve]"
CSSC,Potency,[3],"inconclusive: 0.246 µM [activator, single point]"
same,Potency,[5],inactive
same,Potency,[6],"inconclusive: 4.42 µM [cytotoxic, full curve]"
same,Potency,[7],"inconclusive: 7.86 µM [cytotoxic, partial curve]"
same,Potency,[16],"inconclusive: 69.4 µM [activator, single point]"
same,Potency,[17],active: 80.6 µM
CCOP(=O)(Sc1ccccc1)Sc1ccccc1,activation,[4],inconclusive: -1.65% [phenotype inactive]
same,Potency,[5],inactive
same,activation,[10],inconclusive: -25.3%
same,Potency,[18],"inconclusive: 1.6 µM [cytotoxic, single point]"
same,Potency,[11],"inconclusive: 34.4 µM [rising, partial curve]"
same,Potency,[2],"inconclusive: 77 µM [cytotoxic, single point]"
CCNS(=O)(=O)C(F)(F)C(F)(F)C(F)(F)C(F)(F)C(F)(F)C(F)(F)C(F)(F)C(F)(F)F,Potency,[12],"inconclusive: 65.7 µM [cytotoxic, single point]"
same,Potency,[8],inactive
same,Potency,[13],inactive
same,Potency,[15],"inconclusive: 6.63 µM [cytotoxic, full curve]"
same,activation,[19],inconclusive: -0.197% [phenotype inactive]
same,activation,[10],inconclusive: -23.3%
same,Potency,[17],"inconclusive: 34.1 µM [inhibitor, single point]"
C[N+](C)(C)CC1CO1 (stereo not drawn),"activity change, negative = cytotoxicity",[12],inconclusive: -101%
same,Potency,[5],inactive
same,Potency,[14],"inconclusive: 19.5 µM [cytotoxic, partial curve, poor fit]"
CC(C)(c1ccc(O)c(-c2ccccc2)c1)c1ccc(O)c(-c2ccccc2)c1,Potency,[9],active: 61.1 µM
same,Potency,[18],active: 25.3 µM
same,Potency,[6],active: 21.9 µM
same,Potency,[11],"inconclusive: 68.6 µM [cytotoxic, single point]"
Nc1ccc([N+](=O)[O-])cc1Cl,Potency,[9],"inconclusive: 54.5 µM [cytotoxic, partial curve]"
same,Potency,[18],inactive
same,Potency,[2],active: 61.1 µM
Clc1cc(Cl)c(-c2cc(Cl)c(Cl)cc2Cl)cc1Cl,Potency,[3],"inconclusive: 9.13 µM [rising, partial curve, poor fit]"
same,Potency,[12],inactive
same,Potency,[13],"inconclusive: 13 µM [cytotoxic, single point]"
same,Potency,[5],"inconclusive: 10.3 µM [cytotoxic, single point]"
same,Potency,[10],"inconclusive: 12.9 µM [inhibitor, partial curve, poor fit]"
same,Potency,[17],"inconclusive: 42.2 µM [inhibitor, single point]"
C#CCOC(=O)/C=C(C)/C=C/CC(C)CCCC(C)C (stereo not drawn),Potency,[4],"inconclusive: 77 µM [activator, partial curve, poor fit]"
same,Potency,[13],"inconclusive: 9.77 µM [rising, full curve, poor fit]"
same,Potency,[14],"inconclusive: 21.9 µM [cytotoxic, partial curve, poor fit]"
CC1CCCCC1NC(=O)Nc1ccccc1 (stereo not drawn),Potency,[12],"inconclusive: 68.6 µM [cytotoxic, single point]"
same,Potency,[8],inactive
same,Potency,[4],"inconclusive: 77 µM [activator, single point]"
same,Potency,[13],inactive
same,Potency,[19],inconclusive: 34.4 µM [activator]
same,Potency,[6],"inconclusive: 43.6 µM [cytotoxic, partial curve, poor fit]"
same,Potency,[1],"inconclusive: 30.9 µM [cytotoxic, partial curve, poor fit]"
